pIC50: −log10 of the molar value. At least one structure is not confirmed: it was looked up by name or label, or the drawing left a doubt.
Columns and labels:
Type in all cases: cell-based
hNav1.3 = hNav1.3 (Homo sapiens, UniProt Q9NY46); settings: IonWorks Quattro, use-dependent block; read-out: IWQ Use Nav1.3
hNav1.5 = hNav1.5 (Homo sapiens, UniProt Q14524); settings: IonWorks Quattro, use-dependent block; read-out: IWQ Use Nav1.5
hNav1.7 = hNav1.7 (Homo sapiens, UniProt Q15858); settings: IonWorks Quattro, use-dependent block; read-out: IWQ Use Nav1.7
hNav1.7, sequence (Q15858 whole entry, looked up): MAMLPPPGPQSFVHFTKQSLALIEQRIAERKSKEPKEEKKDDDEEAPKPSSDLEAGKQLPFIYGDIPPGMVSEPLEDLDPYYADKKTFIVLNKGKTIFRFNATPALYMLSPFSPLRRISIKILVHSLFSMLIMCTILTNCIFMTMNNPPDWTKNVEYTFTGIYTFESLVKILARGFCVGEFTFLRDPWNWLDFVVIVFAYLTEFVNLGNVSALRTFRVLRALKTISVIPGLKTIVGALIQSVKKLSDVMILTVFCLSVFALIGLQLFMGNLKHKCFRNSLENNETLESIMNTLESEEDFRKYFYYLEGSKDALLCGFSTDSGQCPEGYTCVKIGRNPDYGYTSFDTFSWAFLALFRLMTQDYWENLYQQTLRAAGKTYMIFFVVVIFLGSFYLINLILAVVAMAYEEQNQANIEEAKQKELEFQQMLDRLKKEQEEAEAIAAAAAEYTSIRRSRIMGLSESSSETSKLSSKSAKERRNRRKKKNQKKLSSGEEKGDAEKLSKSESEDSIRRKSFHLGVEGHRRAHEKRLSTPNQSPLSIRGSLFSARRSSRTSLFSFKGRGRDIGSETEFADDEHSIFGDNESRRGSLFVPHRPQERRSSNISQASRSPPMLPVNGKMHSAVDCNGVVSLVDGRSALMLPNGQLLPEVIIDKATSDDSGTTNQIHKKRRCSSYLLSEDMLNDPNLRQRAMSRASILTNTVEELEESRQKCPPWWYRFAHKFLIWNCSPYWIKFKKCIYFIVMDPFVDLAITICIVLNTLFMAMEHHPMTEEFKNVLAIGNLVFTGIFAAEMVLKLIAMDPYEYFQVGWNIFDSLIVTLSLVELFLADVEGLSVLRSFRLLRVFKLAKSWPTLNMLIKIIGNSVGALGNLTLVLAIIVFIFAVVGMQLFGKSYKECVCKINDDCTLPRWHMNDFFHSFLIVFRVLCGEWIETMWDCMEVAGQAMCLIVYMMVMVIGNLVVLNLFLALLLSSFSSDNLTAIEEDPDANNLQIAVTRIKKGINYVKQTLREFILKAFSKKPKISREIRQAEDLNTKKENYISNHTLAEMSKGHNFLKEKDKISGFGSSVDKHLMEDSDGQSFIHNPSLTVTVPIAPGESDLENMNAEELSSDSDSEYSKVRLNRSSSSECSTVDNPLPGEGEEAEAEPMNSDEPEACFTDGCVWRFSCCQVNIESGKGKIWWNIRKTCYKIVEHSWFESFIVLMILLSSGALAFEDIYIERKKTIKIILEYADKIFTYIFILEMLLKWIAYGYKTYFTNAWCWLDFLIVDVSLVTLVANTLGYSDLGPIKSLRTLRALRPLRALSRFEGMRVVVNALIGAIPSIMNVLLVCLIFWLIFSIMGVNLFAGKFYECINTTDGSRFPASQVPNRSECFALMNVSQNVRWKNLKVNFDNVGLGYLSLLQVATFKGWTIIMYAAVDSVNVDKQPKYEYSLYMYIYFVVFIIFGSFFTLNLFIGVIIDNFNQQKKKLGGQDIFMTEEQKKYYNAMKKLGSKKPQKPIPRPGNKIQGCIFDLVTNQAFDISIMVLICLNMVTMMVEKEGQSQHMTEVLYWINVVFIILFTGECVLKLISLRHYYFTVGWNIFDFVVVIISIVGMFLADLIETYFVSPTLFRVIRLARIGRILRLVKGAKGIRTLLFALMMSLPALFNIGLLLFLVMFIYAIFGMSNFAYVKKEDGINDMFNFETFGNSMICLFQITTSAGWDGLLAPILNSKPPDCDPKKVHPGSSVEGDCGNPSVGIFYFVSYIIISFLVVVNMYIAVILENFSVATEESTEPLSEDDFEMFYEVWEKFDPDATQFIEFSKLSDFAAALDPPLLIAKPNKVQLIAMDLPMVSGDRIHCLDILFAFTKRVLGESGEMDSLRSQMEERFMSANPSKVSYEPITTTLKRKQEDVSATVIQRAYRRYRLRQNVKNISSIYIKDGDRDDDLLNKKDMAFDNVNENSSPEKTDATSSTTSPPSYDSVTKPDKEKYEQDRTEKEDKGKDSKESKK

hNav1.5, sequence (Q14524 whole entry, looked up): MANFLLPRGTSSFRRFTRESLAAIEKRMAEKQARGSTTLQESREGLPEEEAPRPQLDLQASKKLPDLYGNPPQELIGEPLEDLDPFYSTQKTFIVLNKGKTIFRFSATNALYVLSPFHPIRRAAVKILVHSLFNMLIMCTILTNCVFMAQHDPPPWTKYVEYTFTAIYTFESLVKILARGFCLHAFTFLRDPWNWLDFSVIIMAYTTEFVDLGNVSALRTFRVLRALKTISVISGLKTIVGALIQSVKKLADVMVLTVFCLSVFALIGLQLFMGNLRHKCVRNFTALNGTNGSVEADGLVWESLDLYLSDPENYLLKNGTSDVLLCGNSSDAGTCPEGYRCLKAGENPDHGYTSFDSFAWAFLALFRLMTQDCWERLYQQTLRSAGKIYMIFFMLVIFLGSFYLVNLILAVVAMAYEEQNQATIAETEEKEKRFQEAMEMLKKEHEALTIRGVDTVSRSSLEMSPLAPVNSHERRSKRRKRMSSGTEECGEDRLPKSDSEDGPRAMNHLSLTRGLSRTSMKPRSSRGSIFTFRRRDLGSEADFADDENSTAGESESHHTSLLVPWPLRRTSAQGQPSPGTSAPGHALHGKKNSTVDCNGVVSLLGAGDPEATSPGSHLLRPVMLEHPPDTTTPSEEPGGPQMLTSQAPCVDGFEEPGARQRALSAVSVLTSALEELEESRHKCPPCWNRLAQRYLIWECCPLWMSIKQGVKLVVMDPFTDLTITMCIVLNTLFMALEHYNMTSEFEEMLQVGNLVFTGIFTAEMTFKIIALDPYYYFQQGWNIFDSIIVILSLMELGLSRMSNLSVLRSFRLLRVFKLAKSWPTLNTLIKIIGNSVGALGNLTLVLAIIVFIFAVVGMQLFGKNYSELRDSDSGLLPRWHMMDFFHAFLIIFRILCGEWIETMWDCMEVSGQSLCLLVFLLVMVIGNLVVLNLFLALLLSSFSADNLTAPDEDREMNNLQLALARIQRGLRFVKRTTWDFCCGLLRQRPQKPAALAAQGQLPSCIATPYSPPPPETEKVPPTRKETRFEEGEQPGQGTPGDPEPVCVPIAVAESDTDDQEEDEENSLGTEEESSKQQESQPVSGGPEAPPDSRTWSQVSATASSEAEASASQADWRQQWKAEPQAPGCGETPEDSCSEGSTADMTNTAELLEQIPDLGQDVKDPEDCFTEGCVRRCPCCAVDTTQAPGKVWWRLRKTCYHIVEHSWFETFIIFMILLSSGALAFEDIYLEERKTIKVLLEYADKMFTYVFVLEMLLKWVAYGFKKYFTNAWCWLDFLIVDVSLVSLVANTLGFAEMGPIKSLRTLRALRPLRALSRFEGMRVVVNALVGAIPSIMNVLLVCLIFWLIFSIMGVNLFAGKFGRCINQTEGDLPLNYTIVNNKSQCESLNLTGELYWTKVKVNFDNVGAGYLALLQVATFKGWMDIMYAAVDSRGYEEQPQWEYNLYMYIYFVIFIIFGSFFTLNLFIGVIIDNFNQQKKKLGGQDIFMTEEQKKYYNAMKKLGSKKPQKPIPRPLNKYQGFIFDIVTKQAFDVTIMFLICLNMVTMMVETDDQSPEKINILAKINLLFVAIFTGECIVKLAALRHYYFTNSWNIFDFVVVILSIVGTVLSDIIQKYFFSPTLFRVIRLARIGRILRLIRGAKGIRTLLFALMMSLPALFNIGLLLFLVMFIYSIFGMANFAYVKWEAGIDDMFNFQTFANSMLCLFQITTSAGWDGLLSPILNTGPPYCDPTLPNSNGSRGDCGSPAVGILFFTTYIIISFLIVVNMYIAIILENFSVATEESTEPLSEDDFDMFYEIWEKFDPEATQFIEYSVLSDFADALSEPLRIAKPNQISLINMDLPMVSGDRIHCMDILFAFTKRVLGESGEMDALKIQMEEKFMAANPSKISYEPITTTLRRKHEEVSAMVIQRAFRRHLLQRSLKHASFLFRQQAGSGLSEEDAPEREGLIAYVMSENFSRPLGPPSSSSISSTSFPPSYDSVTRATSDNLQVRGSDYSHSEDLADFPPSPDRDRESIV

## CC[C@H](C)[C@@H]1NC(=O)[C@@H]2CSSC[C@@H]3NC(=O)[C@H](C(C)C)NC(=O)[C@H](CC(C)C)NC(=O)[C@H](CC(N)=O)NC(=O)[C@@H]4CCCN4C(=O)[C@H](CCCNC(=N)N)NC(=O)[C@H](CSSC[C@H](NC(=O)[C@@H](N)CC(=O)O)C(=O)N[C@@H](CC(C)C)C(=O)NCC(=O)N[C@@H](Cc4ccccc4)C(=O)N[C@@H](Cc4ccccc4)C(=O)N[C@@H](CCCNC(=N)N)C(=O)N[C@@H](CCCCN)C(=O)N2)NC(=O)[C@H](CSSC[C@@H](C(=O)N[C@@H](CCCCN)C(=O)N[C@@H](Cc2ccc(O)cc2)C(=O)N[C@H](C(=O)N[C@@H](Cc2ccccc2)C(N)=O)C(C)C)NC(=O)[C@H](Cc2c[nH]c4ccccc24)NC(=O)[C@H](CCCCN)NC(=O)[C@H](Cc2cn(CCOCCOCCOCCOCCOCCOCCOCCOCCOCCOCCN)nn2)NC(=O)[C@H]([C@@H](C)O)NC(=O)[C@H](CCCNC(=N)N)NC(=O)[C@H](CO)NC3=O)NC(=O)[C@H](CCCCN)NC(=O)[C@H](CC(=O)O)NC(=O)[C@H](CC(N)=O)NC(=O)[C@H](CC(=O)O)NC(=O)[C@@H]2CCCN2C1=O [compound 544]
hNav1.3
  pIC50: 5.43
hNav1.5
  pIC50: < 5.30
hNav1.7
  pIC50: 5.59

## CC[C@H](C)[C@@H]1NC(=O)[C@@H]2CSSC[C@@H]3NC(=O)[C@H](C(C)C)NC(=O)[C@H](CC(C)C)NC(=O)[C@H](CC(N)=O)NC(=O)[C@@H]4CCCN4C(=O)[C@H](CCCNC(=N)N)NC(=O)[C@H](CSSC[C@H](NC(=O)[C@@H](N)CC(=O)O)C(=O)N[C@@H](CC(C)C)C(=O)NCC(=O)N[C@@H](Cc4cn(CCOCCOCCOCCOCCOCCOCCOCCOCCOCCOCCN)nn4)C(=O)N[C@@H](Cc4ccccc4)C(=O)N[C@@H](CCCNC(=N)N)C(=O)N[C@@H](CCCCN)C(=O)N2)NC(=O)[C@H](CSSC[C@@H](C(=O)N[C@@H](CCCCN)C(=O)N[C@@H](Cc2ccc(O)cc2)C(=O)N[C@H](C(=O)N[C@@H](Cc2cccc4ccccc24)C(N)=O)C(C)C)NC(=O)[C@H](Cc2c[nH]c4ccccc24)NC(=O)[C@H](CCCCN)NC(=O)[C@H](Cc2c[nH]cn2)NC(=O)[C@H]([C@@H](C)O)NC(=O)[C@H](CCCNC(=N)N)NC(=O)[C@H](CO)NC3=O)NC(=O)[C@H](CCCCN)NC(=O)[C@H](CC(=O)O)NC(=O)[C@H](CC(N)=O)NC(=O)[C@H](CC(=O)O)NC(=O)[C@@H]2CCCN2C1=O [compound 552]
hNav1.3
  pIC50: 5.60
hNav1.5
  pIC50: < 5.30
hNav1.7
  pIC50: 5.34

## CC[C@H](C)[C@@H]1NC(=O)[C@@H]2CSSC[C@@H]3NC(=O)[C@H](C(C)C)NC(=O)[C@H](CC(C)C)NC(=O)[C@H](CC(N)=O)NC(=O)[C@@H]4CCCN4C(=O)[C@H](CCCNC(=N)N)NC(=O)[C@H](CSSC[C@H](NC(=O)[C@@H](N)CC(=O)O)C(=O)N[C@@H](CC(C)C)C(=O)NCC(=O)N[C@@H](Cc4ccccc4)C(=O)N[C@@H](Cc4cn(CCOCCOCCOCCOCCOCCOCCOCCOCCOCCOCCN)nn4)C(=O)N[C@@H](CCCNC(=N)N)C(=O)N[C@@H](CCCCN)C(=O)N2)NC(=O)[C@H](CSSC[C@@H](C(=O)N[C@@H](CCCCN)C(=O)N[C@@H](Cc2ccc(O)cc2)C(=O)N[C@H](C(=O)N[C@@H](Cc2cccc4ccccc24)C(N)=O)C(C)C)NC(=O)[C@H](Cc2c[nH]c4ccccc24)NC(=O)[C@H](CCCCN)NC(=O)[C@H](Cc2c[nH]cn2)NC(=O)[C@H]([C@@H](C)O)NC(=O)[C@H](CCCNC(=N)N)NC(=O)[C@H](CO)NC3=O)NC(=O)[C@H](CCCCN)NC(=O)[C@H](CC(=O)O)NC(=O)[C@H](CC(N)=O)NC(=O)[C@H](CC(=O)O)NC(=O)[C@@H]2CCCN2C1=O [compound 553]
hNav1.3
  pIC50: < 5.30
hNav1.5
  pIC50: < 5.30
hNav1.7
  pIC50: 5.39

## CC[C@H](C)[C@@H]1NC(=O)[C@@H]2CSSC[C@@H]3NC(=O)[C@H](C(C)C)NC(=O)[C@H](CC(C)C)NC(=O)[C@H](CC(N)=O)NC(=O)[C@@H]4CCCN4C(=O)[C@H](CCCNC(=N)N)NC(=O)[C@H](CSSC[C@H](NC(=O)[C@@H](N)CC(=O)O)C(=O)N[C@@H](CC(C)C)C(=O)NCC(=O)N[C@@H](Cc4ccccc4)C(=O)N[C@@H](Cc4ccccc4)C(=O)N[C@@H](CCCNC(=N)N)C(=O)N[C@@H](CCCCN)C(=O)N2)NC(=O)[C@H](CSSC[C@@H](C(=O)N[C@@H](CCCCN)C(=O)N[C@@H](Cc2ccc(O)cc2)C(=O)N[C@H](C(=O)N[C@@H](Cc2ccccc2)C(N)=O)C(C)C)NC(=O)[C@H](Cc2cn(CCOCCOCCOCCOCCOCCOCCOCCOCCOCCOCCN)nn2)NC(=O)[C@H](CCCCN)NC(=O)[C@H](Cc2c[nH]cn2)NC(=O)[C@H](CC(C)C)NC(=O)[C@H](CCCNC(=N)N)NC(=O)[C@H](CO)NC3=O)NC(=O)[C@H](CCCCN)NC(=O)[C@H](CC(=O)O)NC(=O)[C@H](CC(N)=O)NC(=O)[C@H](CC(=O)O)NC(=O)[C@@H]2CCCN2C1=O [compound 584]
hNav1.3
  pIC50: 5.80
hNav1.5
  pIC50: < 5.30
hNav1.7
  pIC50: 6.12

## CC[C@H](C)[C@@H]1NC(=O)[C@@H]2CSSC[C@@H]3NC(=O)[C@H](C(C)C)NC(=O)[C@H](CC(C)C)NC(=O)[C@H](CC(N)=O)NC(=O)[C@@H]4CCCN4C(=O)[C@H](CCCNC(=N)N)NC(=O)[C@H](CSSC[C@H](NC(=O)[C@@H](N)Cc4cn(CCOCCOCCOCCOCCOCCOCCOCCOCCOCCOCCN)nn4)C(=O)N[C@@H](CC(C)C)C(=O)NCC(=O)N[C@@H](C)C(=O)N[C@@H](Cc4ccccc4)C(=O)N[C@@H](CCCNC(=N)N)C(=O)N[C@@H](CCCCN)C(=O)N2)NC(=O)[C@H](CSSC[C@@H](C(=O)N[C@@H](CCCCN)C(=O)N[C@@H](Cc2ccc(O)cc2)C(=O)N[C@H](C(=O)N[C@@H](Cc2ccccc2)C(N)=O)C(C)C)NC(=O)[C@H](Cc2c[nH]c4ccccc24)NC(=O)[C@H](CCCCN)NC(=O)[C@H](Cc2c[nH]cn2)NC(=O)[C@H]([C@@H](C)O)NC(=O)[C@H](CCCNC(=N)N)NC(=O)[C@H](CO)NC3=O)NC(=O)[C@H](CCCCN)NC(=O)[C@H](CC(=O)O)NC(=O)[C@H](CC(N)=O)NC(=O)[C@H](CC(=O)O)NC(=O)[C@@H]2CCCN2C1=O [compound 518]
hNav1.3
  pIC50: 6.85
hNav1.5
  pIC50: < 5.30
hNav1.7
  pIC50: 6.44

## CC[C@H](C)[C@@H]1NC(=O)[C@@H]2CSSC[C@@H]3NC(=O)[C@H](C(C)C)NC(=O)[C@H](CC(C)C)NC(=O)[C@H](CC(N)=O)NC(=O)[C@@H]4CCCN4C(=O)[C@H](CCCNC(=N)N)NC(=O)[C@H](CSSC[C@H](NC(=O)[C@@H](N)CC(=O)O)C(=O)N[C@@H](CC(C)C)C(=O)NCC(=O)N[C@@H](Cc4ccccc4)C(=O)N[C@@H](Cc4ccccc4)C(=O)N[C@@H](CCCNC(=N)N)C(=O)N[C@@H](CCCCN)C(=O)N2)NC(=O)[C@H](CSSC[C@@H](C(=O)N[C@@H](CCCCN)C(=O)N[C@@H](Cc2ccc(O)cc2)C(=O)N[C@H](C(=O)N[C@@H](Cc2ccccc2)C(N)=O)C(C)C)NC(=O)[C@H](Cc2c[nH]c4ccccc24)NC(=O)[C@H](Cc2cn(CCOCCOCCOCCOCCOCCOCCOCCOCCOCCOCCN)nn2)NC(=O)[C@H](Cc2c[nH]cn2)NC(=O)[C@H]([C@@H](C)O)NC(=O)[C@H](CCCNC(=N)N)NC(=O)[C@H](CO)NC3=O)NC(=O)[C@H](CCCCN)NC(=O)[C@H](CC(=O)O)NC(=O)[C@H](CC(N)=O)NC(=O)[C@H](CC(=O)O)NC(=O)[C@@H]2CCCN2C1=O [compound 545]
hNav1.3
  pIC50: 7.44
hNav1.5
  pIC50: 5.23
hNav1.7
  pIC50: 7.31

## CC[C@H](C)[C@@H]1NC(=O)[C@@H]2CSSC[C@@H]3NC(=O)[C@H](C(C)C)NC(=O)[C@H](CC(C)C)NC(=O)[C@H](CC(N)=O)NC(=O)[C@@H]4CCCN4C(=O)[C@H](CCCNC(=N)N)NC(=O)[C@H](CSSC[C@H](NC(=O)[C@@H](N)CC(=O)O)C(=O)N[C@@H](Cc4cn(CCOCCOCCOCCOCCOCCOCCOCCOCCOCCOCCN)nn4)C(=O)NCC(=O)N[C@@H](C)C(=O)N[C@@H](Cc4ccccc4)C(=O)N[C@@H](CCCNC(=N)N)C(=O)N[C@@H](CCCCN)C(=O)N2)NC(=O)[C@H](CSSC[C@@H](C(=O)N[C@@H](CCCCN)C(=O)N[C@@H](Cc2ccc(O)cc2)C(=O)N[C@H](C(=O)N[C@@H](Cc2ccccc2)C(N)=O)C(C)C)NC(=O)[C@H](Cc2c[nH]c4ccccc24)NC(=O)[C@H](CCCCN)NC(=O)[C@H](Cc2c[nH]cn2)NC(=O)[C@H]([C@@H](C)O)NC(=O)[C@H](CCCNC(=N)N)NC(=O)[C@H](CO)NC3=O)NC(=O)[C@H](CCCCN)NC(=O)[C@H](CC(=O)O)NC(=O)[C@H](CC(N)=O)NC(=O)[C@H](CC(=O)O)NC(=O)[C@@H]2CCCN2C1=O [compound 563]
hNav1.3
  pIC50: 7.14
hNav1.5
  pIC50: < 5.30
hNav1.7
  pIC50: 6.70

## CC[C@H](C)[C@@H]1NC(=O)[C@@H]2CSSC[C@@H]3NC(=O)[C@H](C(C)C)NC(=O)[C@H](CC(C)C)NC(=O)[C@H](CC(N)=O)NC(=O)[C@@H]4CCCN4C(=O)[C@H](CCCNC(=N)N)NC(=O)[C@H](CSSC[C@H](NC(=O)[C@@H](N)CC(=O)O)C(=O)N[C@@H](CC(C)C)C(=O)N[C@@H](Cc4cn(CCOCCOCCOCCOCCOCCOCCOCCOCCOCCOCCN)nn4)C(=O)N[C@@H](C)C(=O)N[C@@H](Cc4ccccc4)C(=O)N[C@@H](CCCNC(=N)N)C(=O)N[C@@H](CCCCN)C(=O)N2)NC(=O)[C@H](CSSC[C@@H](C(=O)N[C@@H](CCCCN)C(=O)N[C@@H](Cc2ccc(O)cc2)C(=O)N[C@H](C(=O)N[C@@H](Cc2ccccc2)C(N)=O)C(C)C)NC(=O)[C@H](Cc2c[nH]c4ccccc24)NC(=O)[C@H](CCCCN)NC(=O)[C@H](Cc2c[nH]cn2)NC(=O)[C@H]([C@@H](C)O)NC(=O)[C@H](CCCNC(=N)N)NC(=O)[C@H](CO)NC3=O)NC(=O)[C@H](CCCCN)NC(=O)[C@H](CC(=O)O)NC(=O)[C@H](CC(N)=O)NC(=O)[C@H](CC(=O)O)NC(=O)[C@@H]2CCCN2C1=O [compound 564]
hNav1.3
  pIC50: 5.85
hNav1.5
  pIC50: < 5.30
hNav1.7
  pIC50: 5.55
